The supplement of paper PMC12217912
The other results are listed elsewhere or left out. Sequences were assembled here from the parent chain. Values near 0.05 are background.

B1: TEV protease; numbered along this chain (parent)
chain: MGESLFKGPRDYNPISSSICHLTNESDGHTTSLYGIGFGPFIITNKHLFRRNNGTLVVQSLHGVFKVKDTTTLQQHLVDGRDMIIIRMPKDFPPFPQKLKFREPQREERICLVTTNFQTKSMSSMVSDTSCTFPSGDGIFWKHWIQTKDGQCGSPLVSTRDGFIVGIHSASNFTNTNNYFTSVPKNFMELLTNQEAQQWVSGWRLNADSVLWGGHKVFMVKPEEPFQPVKEATQL

Variants of: B1
Test: raw area under fraction-flipped curve 0-4 h after induction (AUC4h, not background-subtracted), DNA-recorder readout of cleavage of the substrate (dimensionless); higher = more cleavage of the substrate by the protease variant
Settings: temperature: 34 °C; time window: 0-4 h after rhamnose induction
Method: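 In vivo DNA recorder in E. coli TOP10(DE3) ΔrhaA at 34 °C. Each TEVp single-site mutant (parent TEVp 0) is paired with a single-site variant of the 7-mer TEVs (canonical ENLYFQ|S). The substrate sits between flexible linkers in a Bxb1-sfGFP-TEVs-SsrA fusion, so cleavage stabilises Bxb1 and speeds flipping of a recombination array, read by NGS. The value is the raw area under the fraction-flipped curve over 0-4 h after rhamnose induction (AUC4h), with ≥20 reads per time point. It is not background-subtracted; inactive controls average about 0.047.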
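Note: Bxb1 expression induced with 0.2% (w/v) L-rhamnose at OD600 near 0.5, cultures sampled hourly, flipped fraction per protease–substrate barcode pair counted by paired-end Illumina sequencing.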

Variant	area with substrate HNLYFQS	area with substrate INLYFQS	area with substrate KNLYFQS	area with substrate NNLYFQS	area with substrate TNLYFQS	area with substrate VNLYFQS	area with substrate YNLYFQS	area with substrate LNLYFQS	area with substrate PNLYFQS	area with substrate MNLYFQS
N177G	0.0687	0.0542	0.0689	0.0546	0.0595	0.0699	0.0501	–	–	–
N177M	0.069	–	0.105	–	–	–	0.0601	0.0752	0.0539	–
R102E	0.0434	0.0575	–	0.053	0.0564	–	–	–	–	0.0397
V229R	0.0966	–	–	0.0576	0.0655	0.062	–	0.0713	0.0674	–
R81V	0.0595	–	0.0572	–	0.0613	–	–	–	–	–
F38V	0.0602	0.062	–	–	0.0618	–	–	–	–	0.0466
T115K	0.061	–	–	–	0.0662	0.0632	0.0486	0.0675	0.064	–
T115Q	0.0665	0.0483	0.0603	0.0507	0.0678	0.0679	0.0466	0.0609	0.0839	0.0762
T176Q	0.0673	–	0.0644	–	–	–	–	–	–	–
L190N	0.0583	–	–	–	0.0628	–	0.0683	–	–	0.029
L190P	0.0672	–	0.0649	–	–	–	0.0391	0.0562	0.0611	0.0648
L99E	0.0553	0.066	–	–	–	0.0593	–	0.0662	–	–
G28Y	0.0628	0.0608	–	–	0.0742	–	0.0668	0.0704	0.0629	–
W212N	0.0482	–	–	–	–	–	–	–	–	–
W212S	0.0612	0.126	–	–	0.008	–	0.0614	–	0.0734	0.0658
R204D	0.0594	0.0642	–	0.0732	0.054	0.0476	0.0559	0.057	0.0618	0.0856
R87Q	0.0638	–	–	–	–	–	0.0612	–	–	0.0725
R87D	0.0501	–	0.063	–	0.065	0.0627	0.0574	–	–	–
Q74P	0.0701	0.0829	–	–	–	0.0017	–	0.0601	0.0686	–
V113Y	0.0707	0.0762	0.0431	–	0.0462	0.0631	0.0527	–	0.0705	–
V165M	0.0574	–	–	–	0.0744	–	–	–	–	–
Q198S	0.0599	0.0742	0.0691	0.0825	0.0352	0.074	0.0581	0.0451	0.0678	–
N193C	0.0639	–	–	–	0.0747	–	–	–	–	–
N193Q	0.0851	–	–	–	–	0.0619	–	0.0585	–	–
S154I	0.0744	–	–	–	–	–	–	0.0664	0.0689	–
T119A	0.0676	–	0.0599	0.0731	–	0.0599	0.0365	0.0745	–	0.0863

Variant	area with substrate HNLYFQS	area with substrate INLYFQS	area with substrate KNLYFQS	area with substrate NNLYFQS	area with substrate TNLYFQS	area with substrate VNLYFQS	area with substrate YNLYFQS	area with substrate LNLYFQS	area with substrate PNLYFQS	area with substrate MNLYFQS
K185V	0.0685	0.0748	–	–	–	0.0711	–	0.072	–	0.0579
K185A	0.0691	–	–	0.0659	–	–	–	0.0759	–	–
T129K	0.0681	–	0.065	0.0621	–	–	–	0.0583	0.0588	–
G35S	0.0595	–	0.0453	–	0.0268	–	0.0552	–	–	–
G35A	0.0626	–	–	–	–	–	–	–	–	–
G35V	0.0548	0.0501	–	–	–	–	–	0.0511	0.0387	–
K100D	0.0734	–	0.067	–	0.0612	–	–	–	–	–
P89A	0.0429	0.0573	0.0629	–	–	–	–	–	–	–
P89V	0.0544	–	–	–	0.0384	–	0.0739	–	–	0.0514
G2N	0.0988	–	–	–	–	–	0.0409	–	–	0.0751
G2A	0.105	0.0614	0.0566	–	0.0645	–	–	–	–	–
G2T	0.0595	–	–	0.0267	–	0.0792	–	–	–	–
G2H	0.0695	0.0058	–	–	0.105	0.0536	0.0662	0.072	–	–
K66E	0.0374	0.0685	0.0451	–	0.0513	–	0.0648	–	–	0.0944
K66W	0.0594	–	0.0691	0.058	0.076	–	0.0636	0.0548	0.0709	–
S209E	0.0619	–	–	–	0.0568	–	–	–	0.0591	–
L235F	0.0543	–	–	–	0.0792	–	–	–	0.0576	–
I145N	0.0687	–	–	–	–	–	–	0.0612	–	0.0622
I145G	0.0622	–	0.0575	–	–	–	0.0623	–	0.0702	0.0572
H76F	0.0475	–	0.0642	–	0.0646	–	0.0605	0.0626	0.0679	–
P94N	0.0611	–	0.0599	–	0.0697	–	0.0692	0.0619	0.0758	–
D11T	0.0611	–	–	–	0.0616	–	0.0783	0.0602	0.0636	0.083
L211T	0.0521	–	–	–	–	–	–	–	–	–
V58L	0.0474	–	0.0817	–	0.0649	–	–	0.0682	–	0.0778
I86C	0.0589	–	0.0701	0.0579	0.0443	0.0518	–	–	0.0376	–
H29G	0.0524	–	–	–	0.0608	0.0664	–	–	–	0.106

Same assay, conditions: temperature: 34 °C; time window: 0-4 h after rhamnose induction

Variant	area with substrate SNLYFQS	area with substrate WNLYFQS	area with substrate RNLYFQS	area with substrate QNLYFQS
R102E	0.0486	0.0577	–	–
V229R	0.0585	–	0.053	–
R81V	–	0.0685	–	0.0538
F38V	0.0602	0.0654	0.0629	–
T115K	–	0.075	0.0672	–
T115Q	0.0723	0.0542	–	–
T176Q	–	0.0575	–	–
L190N	0.069	–	–	–
L190P	0.0612	0.0484	–	–
L99E	–	0.0598	–	–
G28Y	0.0764	0.0449	–	0.0622
W212N	–	0.0471	–	–
R204D	0.0477	0.0597	–	–
R87Q	–	0.0489	–	–
R87D	0.0549	0.0564	–	–
Q74P	0.0519	0.0722	0.0485	–
V113Y	–	0.0442	–	0.0679
Q198S	0.0634	0.0632	–	0.0703
N193C	–	0.065	–	–
S154I	0.0895	0.0667	–	–
T119A	0.0637	0.0563	0.0487	–

Variant	area with substrate SNLYFQS	area with substrate WNLYFQS	area with substrate RNLYFQS	area with substrate QNLYFQS
K185V	–	0.0594	–	–
K185A	0.0679	0.0647	–	–
T129K	–	0.0542	–	–
G35A	–	–	0.0534	–
G35V	0.0281	0.0414	–	0.061
K100D	0.0738	0.0522	–	–
P89A	–	0.057	–	0.0528
P89V	–	0.0516	–	–
G2A	–	0.0589	–	–
G2T	0.0731	–	–	–
K66E	0.0628	0.087	–	–
K66W	0.0482	0.0672	–	0.0476
S209E	–	0.0736	–	0.0929
I145N	0.0881	–	0.0819	–
I145G	0.0717	–	–	–
H76F	–	0.0599	–	–
P94N	–	0.0584	–	–
D11T	–	0.0579	–	–
V58L	0.0445	–	–	–
I86C	0.0664	0.0638	–	0.0538
H29G	–	0.0453	0.0524	0.0612
